# From PubChem BioAssay AID743279 (National Center for Advancing Translational Sciences (NCATS), 2014)
# Out of some 360,000 compounds screened, about 17,000 (4.7%) were called active. The inconclusive results got no clear call from the source; some entries with a clear call stand among them for comparison. No stated cut-off is given here; in the data, active means activity change below about -50%; inconclusive means mostly about -30% to -49%; inactive means weaker than that.
# Experiment: qHTS for Inhibitors of Inflammasome Signaling: IL-1-beta AlphaLISA Primary Screen
# Conditions: THP-1 LPS/ATP IL-1B secretion, 16 h; at 57.5 µM, stronger effect = lower value
# How it was run: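 Secreted IL-1B measured by AlphaLISA bead assay after 16 h compound exposure of THP-1 cells; compounds (final up to 57.5 uM) added 1 h before LPS (250 ng/mL) and ATP (1.25 mM) stimulation; lower signal means less secretion.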
# On the % scale 0 is the no-effect control and ±100 the full control effect.
row,Structure (SMILES),activity change
1,CCn1ncc(C2=NOC(C(=O)Nc3c(C)n(C)n(-c4ccccc4)c3=O)C2)c1C (configuration not stated),inactive: 32.8%
2,CC1CN(S(=O)(=O)c2cccc(C(=O)OCCOc3ccccc3)c2)CC(C)O1 (configuration not stated),inactive: -3.51%
3,COc1ccc(C(C(=O)NC2CCCCC2)N(Cc2ccco2)C(=O)c2snc(C(N)=O)c2N)cc1 (configuration not stated),active: -68.4%
4,CC(C)(C)c1ccc(C(O)c2ncc(-c3ccc(F)cc3)[nH]2)cc1 (configuration not stated),active: -66.7%
5,C=CCn1c(SCc2ccc(Cl)c(Cl)c2)nnc1C(CO)NC(=O)c1ccc(OC)cc1 (configuration not stated),inconclusive: -32.8%
6,CCc1cccc(NC(=O)CCc2nc3sc4c(c3c(=O)[nH]2)CCCC4)c1,inactive: 18.3%
7,COc1ccc(/C=C/C(=O)OCC(=O)N2CCCCCC2)c(OC)c1,inactive: -18.2%
8,CCOc1cc(/C=C(\C#N)C(=O)Nc2cccc(C(=O)O)c2)cc(Br)c1OC(=O)c1ccc(OC)cc1,inconclusive: -31.1%
9,Cc1ccc(OCC(=O)Nc2ccccc2-c2ccccc2)cc1,inconclusive: -39.2%
10,COCc1ccc(CN2CCC(C(=O)Nc3cccc(-c4cscn4)c3)CC2)o1,active: -72.9%
11,COC(=O)c1sc(N)c(C(=O)OC)c1COC(=O)[C@@H](NS(=O)(=O)c1cccc(Cl)c1)C(C)C,inconclusive: -40.8%
12,CC[C@]12c3[nH]c4cc(-c5ccco5)ccc4c3CCN1C(=O)[C@@H](CC(=O)NC/C=C(\C)CCC=C(C)C)C[C@@H]2C(=O)N1CCN(C(=O)C2CC2)CC1,inconclusive: -49.1%
13,CC(C)OC(=O)c1ccc(NC(=O)c2ccco2)cc1,inconclusive: -30.2%
14,Oc1ccc(C[C@@H]2CNCCN2CCc2cccc3ccccc23)cc1,inconclusive: -41.1%
15,O=C1OC(CN(Cc2ccccc2)Cc2ccccc2)CN1N=Cc1ccc([N+](=O)[O-])o1 (configuration not stated),inactive: -0.609%
16,CCCCNc1c(-c2ccc(OC)c(SC(C)CC)c2)nc2cnccn12 (configuration not stated),active: -66.5%
17,CCN1CCN(c2cc(C)c3cc(NC(=O)c4cccs4)ccc3n2)CC1,inconclusive: -45.7%
18,COc1ccc(-c2nn3c(-c4ccc(F)cc4)nnc3s2)cc1,inconclusive: -40%
19,COc1ccc(S(=O)(=O)N(C)C[C@H]2Oc3ccc(NC(=O)Cc4ccccc4)cc3C(=O)N([C@H](C)CO)C[C@@H]2C)cc1,inactive: -3.25%
20,Cc1cc(Cl)ccc1OCC(=O)NC1CCCC1,active: -84.9%
21,CCOC(=O)c1csc(NC(=O)CC2CCCC2)n1,inactive: 27%
22,O=C(Nc1ccccc1C(=O)O)c1ccc(Br)c(S(=O)(=O)NCc2ccccc2)c1,inactive: 0%
23,O=C(CSc1ccc([N+](=O)[O-])cc1)Nc1ccccc1N1CCOCC1,inconclusive: -38.5%
24,COc1ccc(OCC(O)Cn2c(N3CCCCC3)nc3c2c(=O)n(C)c(=O)n3C)cc1 (configuration not stated),inactive: 35.1%
25,Cc1ccc2c(c1)[C@H]1[C@H](CO2)[C@H](c2ccccc2)[C@]2(C)C(=O)Nc3ccc(Cl)cc3C(=O)N12,inconclusive: -36.5%
26,CCN(CC)C(=O)C1=C(C)N(Cc2ccc(C(C)(C)C)cc2)C(=O)C(CC(=O)NCCCCc2ccccc2)C1 (configuration not stated),inconclusive: -41.1%

row,Structure (SMILES),activity change
1,COc1ccc(CN(C)CC(O)COC(c2ccc(OC)cc2)c2ccc(OC)cc2)cc1 (configuration not stated),inconclusive: -48%
2,CCCCNC(=O)C1CCCN(S(=O)(=O)c2c(C)noc2/C=C/c2cccs2)C1 (configuration not stated),inconclusive: -35.3%
3,CC1=C(C(=O)N(C(C)C)C(C)C)CC(CC(=O)NC2CC2)C(=O)N1CCC1=CCCCC1 (configuration not stated),inactive: 42.5%
4,C=C(C)C(=O)Oc1ccc(N=Nc2ccc(C)cc2)ccc1=O,inconclusive: -43.1%
5,CCCCCn1c(CCNC(=O)c2cccs2)nc2ccccc21,active: -76.5%
6,COc1cc2c(cc1OC)CN(C(=O)c1ccc(Cl)c(S(=O)(=O)N3CCCC3)c1)CC2,inconclusive: -39.6%
7,C[C@H](N)c1nnc(SCc2c(Cl)cccc2Cl)o1,inconclusive: -33%
8,COc1ccc(C(=O)/C=C/c2ccc(C)cc2)c(OC(=O)c2ccc([N+](=O)[O-])cc2)c1,inconclusive: -33.2%
9,Cc1ccc(CNc2ccc3c(c2)ncn3C(C)C)cc1,inconclusive: -49%
10,CCOC(=O)C(CC)Sc1ccc2nnc(-c3cccnc3)n2n1 (configuration not stated),inactive: 26.7%
11,COc1cc(C(=O)NC(C)c2ccc(-n3ccnc3)cc2)cc(OC)c1C (configuration not stated),inconclusive: -32.5%
12,CNc1cncc(-c2ccc(F)c(F)c2)n1,inconclusive: -32.4%
13,CCOC(=O)C1=C(C)NC2=C(C(=O)CC(c3ccc(OC)c(OC)c3)C2)C1c1ccc(C)o1 (configuration not stated),inconclusive: -41.7%
14,COc1ccc(C(=O)C2CCCN(S(=O)(=O)c3ccc(C(C)=O)cc3)C2)c(C)c1 (configuration not stated),inconclusive: -41.3%
15,O=C(CCc1ccccc1)Nc1ncc([N+](=O)[O-])s1,active: -59.9%
16,O=C(c1cccs1)N1C[C@@H](n2cc(-c3ccc(F)cc3)nn2)[C@H](O)C[C@@H]1c1ccc(Cl)cc1,inactive: -16.1%
17,CCOc1cc(/C=C2\CCC/C(=C\c3cc(Cl)c(O)c(OCC)c3)C2=O)cc(Cl)c1O,active: -99.8%
18,CC1(C)CC1C(=O)Nc1ccc([N+](=O)[O-])cc1Br (configuration not stated),inactive: 1.56%
19,CCn1nc(C)cc1C(=O)N1CCc2c([nH]c3ccccc23)C1c1cc(F)ccc1F (configuration not stated),inconclusive: -38.6%
20,COC(=O)c1ccc(S(=O)(=O)c2ccc([N+](=O)[O-])cc2)cc1,inactive: -4.34%
21,Cc1ccc(N2CCN(C(=O)NC3CCCCC3)CC2)c(C)c1,inactive: -11%
22,C=CCn1c2ccccc2c(=O)c2cc(C#Cc3ccccn3)ccc21,inconclusive: -43.1%
23,CCOC(=O)C(C(=O)OCC)N(C#N)c1nc(SC)nc(N(C)C)n1,inconclusive: -48.4%
24,O=[N+]([O-])c1cccnc1N1CCCCC1,inactive: 8.08%
25,CCn1c(NC(=O)c2ccccc2F)c(-c2cccs2)c(=O)c2ccccc21,inconclusive: -30.9%
26,COc1ccc(C=O)cc1CN1CCCN(Cc2ccccc2F)S1(=O)=O,inconclusive: -31.9%
